The campaign covered roughly 310,000 compounds. About 2,200 (0.71%) showed an effect of 50% or more. Effects have a minus sign here. The list shows a part of the results.
What follows are compounds tested against human ether-à-go-go-related gene (hERG) potassium channel (human, UniProt Q12809) (assay: primary screen, population patch clamp on CHO cells stably expressing hERG).
Chain of human ether-à-go-go-related gene (hERG) potassium channel (Q12809 whole entry, looked up): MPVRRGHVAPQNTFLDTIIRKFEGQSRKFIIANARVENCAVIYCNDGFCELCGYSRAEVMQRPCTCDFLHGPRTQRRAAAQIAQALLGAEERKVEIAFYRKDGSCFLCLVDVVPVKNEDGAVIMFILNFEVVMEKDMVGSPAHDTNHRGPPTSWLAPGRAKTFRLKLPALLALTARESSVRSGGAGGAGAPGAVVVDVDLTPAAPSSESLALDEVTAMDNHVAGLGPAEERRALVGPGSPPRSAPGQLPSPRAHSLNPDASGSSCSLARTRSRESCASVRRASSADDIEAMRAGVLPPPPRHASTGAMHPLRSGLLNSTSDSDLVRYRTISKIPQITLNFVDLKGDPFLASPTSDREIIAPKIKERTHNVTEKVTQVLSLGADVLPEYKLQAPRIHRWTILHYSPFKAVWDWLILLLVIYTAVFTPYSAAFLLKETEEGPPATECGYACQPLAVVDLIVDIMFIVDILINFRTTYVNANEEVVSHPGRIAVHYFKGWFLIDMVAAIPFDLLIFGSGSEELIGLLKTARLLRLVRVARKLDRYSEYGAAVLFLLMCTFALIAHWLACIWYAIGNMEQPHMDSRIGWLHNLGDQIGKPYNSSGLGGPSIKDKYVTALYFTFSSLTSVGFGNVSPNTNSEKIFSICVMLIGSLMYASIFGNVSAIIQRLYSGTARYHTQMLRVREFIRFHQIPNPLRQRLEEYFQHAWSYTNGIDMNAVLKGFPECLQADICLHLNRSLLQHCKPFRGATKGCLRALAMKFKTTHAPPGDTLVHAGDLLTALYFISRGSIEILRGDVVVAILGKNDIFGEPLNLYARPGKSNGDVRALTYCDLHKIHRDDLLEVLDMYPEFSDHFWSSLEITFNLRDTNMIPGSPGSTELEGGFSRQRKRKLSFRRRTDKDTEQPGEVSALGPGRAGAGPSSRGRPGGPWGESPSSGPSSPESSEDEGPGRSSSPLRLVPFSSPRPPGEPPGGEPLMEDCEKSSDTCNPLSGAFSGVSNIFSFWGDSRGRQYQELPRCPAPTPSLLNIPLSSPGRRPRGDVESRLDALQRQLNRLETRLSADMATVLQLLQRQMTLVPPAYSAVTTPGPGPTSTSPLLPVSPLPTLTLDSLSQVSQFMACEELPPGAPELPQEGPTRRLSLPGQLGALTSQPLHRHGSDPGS
For `CC(C)(C)C(=O)Nc1ccc(-c2cnco2)cc1`, the “hERG current change (%, negative = inhibition) at 1uM” value was 12.7%. In the case of `NC(=O)C1CCN(C(=O)c2ccc(CS(=O)(=O)c3c(Cl)cccc3Cl)o2)CC1`, the “hERG current change (%, negative = inhibition) at 1uM” value is reported as 3.48%. In the case of `COc1cc(OC)c(C(=O)OCC(=O)Nc2cc(C)on2)cc1OC`, the “hERG current change (%, negative = inhibition) at 1uM” value is reported as 19.1%. In the case of `O=C(COc1cc2oc(=O)c3c(c2cc1Cl)CCC3)NCC1CCC(C(=O)O)CC1` (centres unmarked), the “hERG current change (%, negative = inhibition) at 1uM” value is reported as 16.6%. In the case of `COCC1CCN(Cc2nc(COc3ccccc3)no2)C1` (centres unmarked), the “hERG current change (%, negative = inhibition) at 1uM” value is reported as 15.1%. With `Cc1ccc(/C=C(\C#N)c2nc3ccccc3[nH]2)s1` the “hERG current change (%, negative = inhibition) at 1uM” value was -1.83%. For `COc1ccc(-c2ccc([C@H]3[C@@H]4C=CCC[C@@]4(C)C(=O)N3Cc3ccccc3)c(F)c2)cc1OC`, the “hERG current change (%, negative = inhibition) at 1uM” value was 3.85%. In the case of `CN1CCC(OC(=O)COc2ccc(F)cc2)CC1.Cl`, the “hERG current change (%, negative = inhibition) at 1uM” value is reported as -1.62%. `O=C1NC(=O)C2C1C(c1ccc([N+](=O)[O-])cc1)=NN2Cc1ccccc1` (centres unmarked) was tested, and the “hERG current change (%, negative = inhibition) at 1uM” value was 5.82%. For `CSc1cccc(NC(=O)c2[nH]c(C)c(C(C)=O)c2C)c1`, the “hERG current change (%, negative = inhibition) at 1uM” value was 0.678%. With `Cc1cc(C)c2cc(CN(CC3CCCO3)S(=O)(=O)c3ccc4c(c3)OCCO4)c(=O)[nH]c2c1` (centres unmarked) the “hERG current change (%, negative = inhibition) at 1uM” value was 5.62%. In the case of `CCN1CCN(C(=S)Nc2ccc(Cl)cc2)CC1`, the “hERG current change (%, negative = inhibition) at 1uM” value is reported as -4.98%. With `COC(=O)c1c(-c2cccs2)csc1NC(=O)CN1CCOCC1` the “hERG current change (%, negative = inhibition) at 1uM” value was -17.5%. `CC(C)(C)[C@@H]1C=C(C(=O)N2CCN(Cc3ccccc3)CC2)O[C@H](OCc2ccc(CO)cc2)C1` was tested, and the “hERG current change (%, negative = inhibition) at 1uM” value was -4.2%. In the case of `O=C(/C=C1\NC2(CCCC2)Cc2ccccc21)N1CCOCC1.O=S(=O)(O)O`, the “hERG current change (%, negative = inhibition) at 1uM” value is reported as 3.19%. For `O=C(CSc1nnc2ccc(-c3ccc(F)cc3)nn12)N1CCOCC1`, the “hERG current change (%, negative = inhibition) at 1uM” value was 10.7%. With `COc1cccc(NC(=O)CSc2nc3c(sc4ccccc43)c(=O)n2CCCN2CCCC2)c1` the “hERG current change (%, negative = inhibition) at 1uM” value was -3.14%. For `O=C(NC1CCSc2ccccc21)c1ccc(Cl)c(S(=O)(=O)N2CCOCC2)c1` (centres unmarked), the “hERG current change (%, negative = inhibition) at 1uM” value was 12.9%. `O=C(NC(NCCCN1CCOCC1)(C(F)(F)F)C(F)(F)F)C1CCCCC1` was tested, and the “hERG current change (%, negative = inhibition) at 1uM” value was 9.75%. In the case of `CC(C)c1ccc(NC(=O)CCNS(=O)(=O)c2cc(Br)cnc2N)cc1`, the “hERG current change (%, negative = inhibition) at 1uM” value is reported as 4.93%. `O=C(NCCCn1ccnc1)C1CCCN(S(=O)(=O)c2ccc(F)cc2)C1` (centres unmarked) was tested, and the “hERG current change (%, negative = inhibition) at 1uM” value was 16.3%. For `C=CCN1C(=O)/C(=C/c2ccc(OCC(=O)O)cc2)S/C1=N/c1nccs1`, the “hERG current change (%, negative = inhibition) at 1uM” value was 2%. With `CCO[C@@H]1OC(C(N)=O)=C[C@H](C2CC2)[C@H]1CCCO` the “hERG current change (%, negative = inhibition) at 1uM” value was 7.15%. For `CCN(CC)c1ncnc2c1cnn2Cc1ccc(Cl)cc1`, the “hERG current change (%, negative = inhibition) at 1uM” value was -3.07%. With `COc1cccc(CNC(=O)C(=O)NCCC2CCCCN2S(=O)(=O)c2cccs2)c1` (centres unmarked) the “hERG current change (%, negative = inhibition) at 1uM” value was 11.9%. For `CCOc1cc(N(CC)CC)ccc1/C=C(/C#N)c1nc2ccccc2[nH]1`, the “hERG current change (%, negative = inhibition) at 1uM” value was 9.62%. `CCc1nnc2sc(-c3cc(-c4ccccc4)nc4ccccc34)nn12` was tested, and the “hERG current change (%, negative = inhibition) at 1uM” value was 4.91%. `O=C(Nc1ccc(S(=O)(=O)N2CCCC2)cc1)c1cc(=O)c2ccccc2o1` was tested, and the “hERG current change (%, negative = inhibition) at 1uM” value was 2.93%. In the case of `Cc1onc(-c2ccccc2)c1C(=O)N1CCN(C/C=C/c2ccccc2)CC1.Cl`, the “hERG current change (%, negative = inhibition) at 1uM” value is reported as -1.77%. In the case of `CN(C)c1cc[n+](CC[n+]2ccc(N(C)C)cc2)cc1.[Br-]`, the “hERG current change (%, negative = inhibition) at 1uM” value is reported as 13.3%. In the case of `CC(/C=C/c1ccccc1)=N\NC(=O)Cn1nc(C)cc1C`, the “hERG current change (%, negative = inhibition) at 1uM” value is reported as 8.37%. `O=C(OCC(=O)N1CCC(Cc2ccccc2)CC1)c1cc(Cl)ccc1O` was tested, and the “hERG current change (%, negative = inhibition) at 1uM” value was 10.9%. With `CCC(=O)c1ccc(N2CCCCCC2)c(F)c1` the “hERG current change (%, negative = inhibition) at 1uM” value was 15.6%. `O=S(=O)(NC(=S)NC1CCCCC1)c1ccc(Cl)cc1` was tested, and the “hERG current change (%, negative = inhibition) at 1uM” value was 21%. In the case of `Cc1cccc(N2CCN(C(=O)COc3ccc4ccc(=O)oc4c3)CC2)c1C`, the “hERG current change (%, negative = inhibition) at 1uM” value is reported as 10.5%. With `Cc1ccc(-n2cnnn2)c(S(=O)(=O)N2CCOCC2)c1` the “hERG current change (%, negative = inhibition) at 1uM” value was 5.69%. For `O=C(Nc1cccc2cccnc12)c1cccc(N2C(=O)CCC2=O)c1`, the “hERG current change (%, negative = inhibition) at 1uM” value was 16.2%. In the case of `COc1ccc(CCC(=O)N2CCCc3ccccc32)cc1`, the “hERG current change (%, negative = inhibition) at 1uM” value is reported as 17.3%. `COC(=O)c1ccccc1NC(=O)c1ccc(COc2cccc3ccccc23)o1` was tested, and the “hERG current change (%, negative = inhibition) at 1uM” value was 2.98%. `Cc1ccc(NC(=O)CSc2ccc(-c3ccco3)nn2)cc1` was tested, and the “hERG current change (%, negative = inhibition) at 1uM” value was 5.58%. With `COC(=O)c1ccc2c(=O)n(CC3CCCO3)c(SCC(=O)Nc3ccc(OC)cc3OC)nc2c1` (centres unmarked) the “hERG current change (%, negative = inhibition) at 1uM” value was 10.9%. `CCOC(=O)c1c(C)n(C)c2ccc(OCCN(C)C)cc12` was tested, and the “hERG current change (%, negative = inhibition) at 1uM” value was 5.87%. With `CCn1ccnc1CNC(=O)c1ccc2oc(C(C)C)nc2c1` the “hERG current change (%, negative = inhibition) at 1uM” value was 23.6%. In the case of `Cc1ccc(NC(=O)C2CC(=O)N(Cc3ccccc3)C2)nc1` (centres unmarked), the “hERG current change (%, negative = inhibition) at 1uM” value is reported as 14.6%. For `CCOC(=O)c1c(NC(=O)C(NCCN(C)C)c2ccccc2)sc2c1CCCC2` (centres unmarked), the “hERG current change (%, negative = inhibition) at 1uM” value was -77.2%. In the case of `CCOc1ccc(CCNC(=O)C2CCCN(S(=O)(=O)N3CC(C)CC(C)C3)C2)cc1OCC` (centres unmarked), the “hERG current change (%, negative = inhibition) at 1uM” value is reported as 2.12%. In the case of `COc1cccc(-c2nn(-c3ccccc3)cc2CN(C)Cc2ccon2)c1`, the “hERG current change (%, negative = inhibition) at 1uM” value is reported as 11.3%. For `COc1ccc(CN(C(=O)c2ccco2)C2CCS(=O)(=O)C2)cc1` (centres unmarked), the “hERG current change (%, negative = inhibition) at 1uM” value was 5.25%. `CN(C)CCNc1nc(-c2ccccc2)nnc1C(F)(F)F` was tested, and the “hERG current change (%, negative = inhibition) at 1uM” value was 4.22%. With `CCOC1OC(=O)C(Cl)=C1Nc1ccc(C)cc1` (centres unmarked) the “hERG current change (%, negative = inhibition) at 1uM” value was 9.29%. In the case of `CCOC(=O)c1c[nH]c2nc(C)ccc2c1=O`, the “hERG current change (%, negative = inhibition) at 1uM” value is reported as 19.6%. In the case of `Cn1c(=O)n(C)c2cc([N+](=O)[O-])c(N3CCN(C(=O)c4ccccc4Cl)CC3)cc21`, the “hERG current change (%, negative = inhibition) at 1uM” value is reported as 5.19%. For `CC(c1ccccc1)C1CC(=O)N(C2CCCCC2)C1=O` (centres unmarked), the “hERG current change (%, negative = inhibition) at 1uM” value was 2.3%. For `Cc1nc2ccccn2c1P(=S)(N1CCCCC1)N1CCCCC1`, the “hERG current change (%, negative = inhibition) at 1uM” value was 9.33%. For `Cc1c(N(C)S(=O)(=O)c2cc(C(=O)N3CCCC3)ccc2Cl)c(=O)n(-c2ccccc2)n1C`, the “hERG current change (%, negative = inhibition) at 1uM” value was 8.15%. With `C=CCOC(=O)COc1ccc2c(C)c(CC)c(=O)oc2c1` the “hERG current change (%, negative = inhibition) at 1uM” value was 10.2%.
